Results reported in PubChem BioAssay AID1030 (National Center for Advancing Translational Sciences (NCATS), 2008).
About 16,000 (7.3%) of roughly 220,000 compounds were called active. The inconclusive results got no clear call from the source; some entries with a clear call stand among them for comparison. The call rests on the fitted dose curve; in most records, active means well fitted inhibition curve with a large enough effect (not every such curve was filed as active); inconclusive means small, poorly fitted or top-dose-only effect, or another doubt; inactive means no such curve, though single readings can be large or run the other way. Where the call is inconclusive, the potency comes from a doubtful curve fit.

These compounds were tested against Aldehyde dehydrogenase 1A1 (Homo sapiens) (UniProt P00352) (assay: qHTS Assay for Inhibitors of Aldehyde Dehydrogenase 1 (ALDH1A1)). Conditions: Purified ALDH1A1, NADH fluorescence, propionaldehyde substrate; series mostly up to 75.3 µM.
Sequence of UniProt P00352 (P00352 whole entry, looked up): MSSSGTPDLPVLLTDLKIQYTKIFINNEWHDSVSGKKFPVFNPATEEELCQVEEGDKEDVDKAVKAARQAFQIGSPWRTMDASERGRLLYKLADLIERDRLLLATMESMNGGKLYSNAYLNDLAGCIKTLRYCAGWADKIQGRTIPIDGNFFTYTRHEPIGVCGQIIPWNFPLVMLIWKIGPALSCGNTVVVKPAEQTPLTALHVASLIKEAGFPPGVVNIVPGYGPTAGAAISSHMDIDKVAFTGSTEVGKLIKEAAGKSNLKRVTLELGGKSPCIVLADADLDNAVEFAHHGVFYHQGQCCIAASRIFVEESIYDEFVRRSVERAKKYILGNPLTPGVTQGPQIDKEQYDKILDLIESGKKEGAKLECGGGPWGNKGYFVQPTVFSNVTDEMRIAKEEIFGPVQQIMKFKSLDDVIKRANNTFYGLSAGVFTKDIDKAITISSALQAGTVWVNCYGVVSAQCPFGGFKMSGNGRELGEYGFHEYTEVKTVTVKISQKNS
Potency means the concentration at half of the fitted maximal effect; tags describe the fitted curve by direction and shape.

Potency, inactive:
Cc1cccc(CSc2nncc(=O)[nH]2)c1
COc1ccccc1N1CCN(C(=S)Nc2cccc(C)c2)CC1
CCC(C)(C)C1CCC(=NNc2nc3ccccc3[nH]2)CC1 (stereo not drawn)
Cc1nc([N+](=O)[O-])cn1CC(=O)Nc1ccc2c(c1)OCO2
O/N=C/c1cccnc1Sc1ccccc1
C=CCN(CC=C)S(=O)(=O)c1ccc2nsnc2c1
CCC(Sc1nc2cc(OC)c(OC)cc2c(=O)n1CCc1ccc(S(N)(=O)=O)cc1)C(=O)NCCOC (stereo not drawn)
CCCC(=O)Nc1nnc(CC(=O)N2CCCC2)s1
CC(C)(C)NC(NC(=O)Cc1ccccc1)C(Cl)(Cl)Cl (stereo not drawn)
CCOC(=O)/C(C#N)=C\c1c(C)cc(C)c(COC(C)=O)c1C
COC(=O)c1nn(-c2ccc(Oc3ccccc3)cc2)c(=O)cc1O
O=C(O)C1CC=CCC1C(=O)Nc1ccccc1 (stereo not drawn)
CC(=O)Nc1sc2c(c1C#N)CCCC2
CSc1ccccc1NC(=O)CN(C)CC(=O)Nc1ccc(Cl)cc1F
Cc1c(NC(=O)CSc2ccc(Cl)cc2)cccc1-c1nc2ncccc2o1
Cc1ccc(Cl)cc1NC(=O)COC(=O)C1CCCCC1
COCC(=O)Nc1ccc(S(=O)(=O)Nc2cc(C)nc(C)n2)cc1
CC(=O)Nc1ccc(NC(=O)Cn2c(=O)n(-c3ccc(C)cc3)c(=O)c3oc4ccccc4c32)cc1
CC1CCc2sc(C(=O)OCC(=O)NCc3ccc(F)cc3)cc2C1 (stereo not drawn)
CNC(=O)c1ccccc1NC(=O)C1CC(=O)N(c2ccc(OC)cc2)C1 (stereo not drawn)

Potency, active:
COC(=O)C1=C(C)N(CCc2ccc(OC)cc2)C(=O)C1 10 µM
O=C(NC(=S)NCCc1ccccc1)c1ccccc1 15.8 µM
O=C1c2ccccc2C(O)(Cc2ccccc2)N1C1CCCCC1 (stereo not drawn) 22.4 µM
O=C(Nc1ccc(Cl)cc1)N1CCC(CO)(Cc2ccccc2)CC1 12.6 µM
O=C1NCCN(Cc2ccc(Cl)c(F)c2)C1CC(=O)N1CCCCO1 (stereo not drawn) 25.1 µM
CCOC(=O)C1CCCN(C(=O)c2sc3nc(-c4ccc(F)cc4)cn3c2C)C1 (stereo not drawn) 10 µM
CCOC(=O)C1=NN(C(=O)c2ccc(OC)cc2)C(O)(c2ccc(Cl)cc2)C1 (stereo not drawn) 17.8 µM
N/C(=N\OC(=O)/C=C/c1ccccc1Cl)c1ccncc1 10 µM
O=C(O)c1cc(-n2nnnc2SCc2ccccc2F)ccc1Cl 10 µM
c1cncc(Nc2nc(-c3cccs3)cs2)c1 7.94 µM
Cc1noc(C)c1CSCC(=O)N1CCN(c2ccc([N+](=O)[O-])cc2)CC1 22.4 µM
O=C(NC1CCCCC1)c1nn2c(C(F)(F)F)cc(-c3ccco3)nc2c1Br 22.4 µM
CC1=C(C)CC(C(=O)N2CCN(Cc3ccccc3)CC2)C(C(=O)O)C1 (stereo not drawn) 14.1 µM
C1=CC2c3ccccc3NC(c3ccncc3)C2C1 (stereo not drawn) 10 µM
COc1ccc(OC)c(NC(=O)C(=S)NC2CCCCC2)c1 8.91 µM
COc1ccc(N2CCN(C(=O)c3ccc(C(C)(C)C)cc3)CC2)cc1 8.91 µM

Potency, inconclusive:
Cc1onc(-c2ccccc2Cl)c1C(=O)N1CC(C)OC(C)C1 (stereo not drawn) 39.8 µM [inhibitor, single point]
CCCCSc1c(C)c2cc3c(cc2[nH]c1=O)OCO3 11.2 µM [inhibitor, partial curve]
CCOC(=O)c1ccc(NC(=S)NN)cc1 39.8 µM [inhibitor, single point]
O=C(c1ccccc1)c1ccc(OCC(O)CNC2CCCc3ccccc32)cc1 (stereo not drawn) 39.8 µM [inhibitor, single point]
CCCS(=O)(=O)N1CCCC(C(=O)N2CCN(c3ccccn3)CC2)C1 (stereo not drawn) 44.7 µM [inhibitor, single point]
COC(=O)c1ccc(CN(c2ccccn2)S(=O)(=O)c2ccccc2)cc1 22.4 µM [inhibitor, partial curve]
COc1cc(/C=C/c2nc3ccccc3s2)cc(OC)c1O 39.8 µM [inhibitor, single point]
Cc1nc(NS(=O)(=O)c2ccccc2)sc1NC(=O)OC(C)C 17.8 µM [inhibitor, partial curve]
COC(=O)C1=C(CN2CCCc3ccccc32)NC(=O)NC1c1ccc(F)cc1 (stereo not drawn) 39.8 µM [inhibitor, single point]
O=C(CSc1ccccc1)Nc1cccnc1 22.4 µM [inhibitor, single point]
O=C(Cn1nnc2ccccc2c1=O)N1CCCc2ccccc21 39.8 µM [inhibitor, single point]
O=S(=O)(c1cccc(NC(=S)N2CCN(c3cccc(Cl)c3)CC2)c1)C(F)F 35.5 µM [inhibitor, single point]
Cc1ccc(-c2cn3cc(C)ccc3n2)cc1 8.91 µM [inhibitor, full curve]
CC(C)CCCCCCNC(=S)Nc1ccc(S(=O)(=O)N2CCOCC2)cc1 22.4 µM [inhibitor, partial curve]
CCc1ccccc1NC(=O)CN(C)Cc1nc(N)nc(Nc2ccccc2C)n1 39.8 µM [inhibitor, single point]
CCOC(=O)N1CCC(NC(=O)c2cccn3c(=O)c4cc(Br)ccc4nc23)CC1 6.31 µM [inhibitor, full curve]
CCN1/C(=C\C(=S)Nc2ccccc2)Sc2ccccc21 31.6 µM [inhibitor, single point]
CCCCCC(=O)NC(=S)Nc1ccccc1C(=O)OC 25.1 µM [inhibitor, single point]
CCN(CC(=O)NCc1ccccn1)S(=O)(=O)c1ccc(Cl)cc1 39.8 µM [inhibitor, single point]
CC1(C)OC(=O)C(=CSc2ccc(C(C)(C)C)cc2)C(=O)O1 39.8 µM [inhibitor, single point]
O=C(NCCCn1ccnc1)c1ccccc1NS(=O)(=O)c1ccc(F)c(F)c1 31.6 µM [inhibitor, single point]
C(=N\n1cnnc1)/c1nc2ccccc2[nH]1 31.6 µM [inhibitor, partial curve]
COc1ccc2cc(CCNC(=O)c3ccc(Br)o3)c(=O)[nH]c2c1 35.5 µM [inhibitor, single point]
Cc1ccccc1-n1c(=O)c(C#N)cc2c(=O)n3ccccc3nc21 31.6 µM [inhibitor, partial curve]
COC(=O)c1c(NC(=O)CCc2ccc(C)o2)sc(C)c1C 12.6 µM [inhibitor, partial curve]
CCc1nc(NCCN)c(C#N)c2c1CSC(C)(C)C2 8.91 µM [inhibitor, full curve]
O=C(CCCc1c[nH]c2ccccc12)N1CCCCCC1 28.2 µM [inhibitor, single point]
O=C1C2C3C=CC(C4CC34)C2C(=O)N1/N=C/c1ccc([N+](=O)[O-])s1 (stereo not drawn) 2.82 µM [inhibitor, full curve]
Cc1nc(C(=O)Nc2ccc(Cl)cc2)nn1-c1ccc([N+](=O)[O-])cc1 22.4 µM [inhibitor, single point]
O=C(CSc1nnc(-c2cccs2)o1)OCc1ccccc1 14.1 µM [inhibitor, partial curve]
Cc1nc2ncccn2c1-c1csc(Nc2ccc(N(C)C)cc2)n1 39.8 µM [inhibitor, single point]
CCCCNc1ncnc2c1cnn2-c1ccccc1 20 µM [inhibitor, partial curve]
CN1CCN(S(=O)(=O)c2ccc(NC(=S)NC(=O)C3CCCCC3)cc2)CC1 31.6 µM [inhibitor, single point]
COCC(=O)N(Cc1cc2cc(OC)ccc2[nH]c1=O)c1ccccc1 20 µM [inhibitor, partial curve]
CC(C)=CCC1=C(O)c2ccccc2C(=O)C1=O 28.2 µM [inhibitor, partial curve]
O=C(NN=C1CCCCCC1)C(=O)Nc1cccc(Br)c1 8.91 µM [inhibitor, full curve]
COC(=O)C1(C(=O)OC)NOC2C(=O)N(c3ccc(Cl)cc3Cl)C(=O)C21 (stereo not drawn) 39.8 µM [inhibitor, single point]
Cc1ccc(C)n1-c1cccc(N)c1 44.7 µM [inhibitor, single point]
COCCNC(=O)c1c[nH]n2c(=O)cc(C3CCN(C(=O)OC(C)(C)C)CC3)nc12 25.1 µM [inhibitor, partial curve]
CCOC(=O)/C(C#N)=C1/C=CNC(=O)N1 25.1 µM [inhibitor, single point]
Fc1ccc(Nc2nc(N/N=C/c3ccco3)nc(N3CCCCC3)n2)cc1 39.8 µM [inhibitor, single point]
CCSc1ccccc1C(=O)Nc1cc(OC)c(OC)c(OC)c1 39.8 µM [inhibitor, single point]
